Reference: the supplement of paper PMC3334620
In all, about 33,000 sequences were measured (“E-score (-0.5 to 0.5)”: median about -0.021, highest 2% from about 0.32 on). The list shows a part of the results.

The sequences below were run against T1, Zap1 (UniProt P47043) (assay: PBM E-score (8-mer binding enrichment) (E-score (-0.5 to 0.5)); higher = stronger / more preferred TF binding; most listed sequences are background and not binding sites). Settings: protein concentration: 200 nM; construct: GST-full length.
T1 sequence: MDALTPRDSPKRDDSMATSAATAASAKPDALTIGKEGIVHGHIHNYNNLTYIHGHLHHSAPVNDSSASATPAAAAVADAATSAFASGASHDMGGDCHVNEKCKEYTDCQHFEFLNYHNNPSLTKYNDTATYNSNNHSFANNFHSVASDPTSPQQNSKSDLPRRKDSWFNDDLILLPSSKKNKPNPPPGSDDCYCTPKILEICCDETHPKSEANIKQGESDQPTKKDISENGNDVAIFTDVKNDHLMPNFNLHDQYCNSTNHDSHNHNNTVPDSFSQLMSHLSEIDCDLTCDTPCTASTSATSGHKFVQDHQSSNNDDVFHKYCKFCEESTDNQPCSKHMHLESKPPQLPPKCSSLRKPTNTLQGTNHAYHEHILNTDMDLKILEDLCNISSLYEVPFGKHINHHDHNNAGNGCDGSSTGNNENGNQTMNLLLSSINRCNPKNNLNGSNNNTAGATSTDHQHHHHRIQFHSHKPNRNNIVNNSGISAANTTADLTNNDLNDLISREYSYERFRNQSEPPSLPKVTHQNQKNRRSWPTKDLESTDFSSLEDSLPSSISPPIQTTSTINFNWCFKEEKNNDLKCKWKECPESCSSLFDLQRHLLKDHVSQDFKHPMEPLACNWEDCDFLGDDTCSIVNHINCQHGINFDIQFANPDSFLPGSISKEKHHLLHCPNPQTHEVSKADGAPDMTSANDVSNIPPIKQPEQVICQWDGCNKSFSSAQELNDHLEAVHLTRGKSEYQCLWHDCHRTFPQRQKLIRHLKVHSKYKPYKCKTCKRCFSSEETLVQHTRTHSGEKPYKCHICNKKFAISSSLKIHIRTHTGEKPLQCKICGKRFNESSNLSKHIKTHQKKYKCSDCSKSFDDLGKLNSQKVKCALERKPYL
Procedure: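 Universal 'all 10-mer' protein binding microarrays (Agilent AMADID 015681) probed with GST-tagged S. cerevisiae TFs (full-length or DBD) made by in vitro transcription/translation (PURExpress), about 100-200 nM. Bound TF was detected with fluorescent anti-GST. Each ungapped 8-mer (which stands for itself and its reverse complement) is scored by the PBM enrichment score (E-score), a modified Wilcoxon-Mann-Whitney statistic from -0.5 to +0.5, computed with the Universal PBM Analysis Suite. Scale: above 0.35 generally sequence-specific binding.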

Row | Sequence | PBM E-score
1 | ATCCCAAG | 0.132
2 | GGGCGCTA | -0.32
3 | ATCTTATC | -0.0113
4 | CGTCCAAG | -0.289
5 | TGTCTAAA | 0.0857
6 | GTAGTCCA | -0.0358
7 | CTCCTCAC | -0.367
8 | TACCGTAA | 0.27
9 | GCGCGGCA | -0.155
10 | GCTATCGA | -0.0297
11 | AGGGCACG | -0.292
12 | AAAGGGTC | 0.363
13 | AGTCCAAT | 0.00298
14 | TCAACACA | 0.172
15 | CTCAATAA | 0.0562
16 | CCTCGTGC | 0.024
17 | CCTCGGAA | 0.215
18 | ACTCATAG | -0.142
19 | GCTTAGCA | -0.148
20 | CAAGCGAC | -0.257
21 | CTAGCCCC | -0.0599
22 | ATCAGAGC | -0.0443

Row | Sequence | PBM E-score
23 | AACGATAG | 0.0456
24 | ATACGTTA | 0.0516
25 | GCACTAGA | -0.197
26 | ACCCTCTA | 0.355
27 | AAAATTAT | 0.236
28 | CATCTTTA | -0.0193
29 | ACATGGAT | -0.0604
30 | AACTGCGT | -0.163
31 | ATAGTCCC | -0.273
32 | AACGACAC | 0.0852
33 | ATCCGGAA | 0.0059
34 | GATGAACA | 0.0452
35 | CTTGTTTC | 0.15
36 | ATCTTCAT | -0.144
37 | CCTCTCAC | -0.0256
38 | GACTATGA | -0.0524
39 | CGGCATAA | 0.0916
40 | CCCAAGTC | -0.191
41 | CACAGAAA | 0.184
42 | CTGCCTCC | -0.237
43 | CTCAGGGC | -0.0163
44 | GAAACGCA | -0.104

Row | Sequence | PBM E-score
45 | TTAACCAA | 0.317
46 | GTAGGAAC | 0.0295
47 | GAATACCA | 0.0327
48 | AAAGGGGC | -0.00977
49 | TCCCTACA | -0.0805
50 | AAGCCGGG | -0.177
51 | CGTTGTGA | -0.151
52 | CTTCCGCA | -0.0327
53 | CGAGTGGC | -0.272
54 | CTGGAAAG | -0.0479
55 | ACATATCA | 0.166
56 | CTATGGAA | 0.0396
57 | ACCTTGGC | 0.106
58 | CAAACATG | 0.0913
59 | CTTGGTTC | 0.232
60 | AGTTCGTA | -0.0771
61 | TGCGTCCA | -0.167
62 | CACAATAC | 0.159
63 | ACGTCGTC | -0.0901
64 | AGCCAAAA | 0.122
65 | ATGCATAA | -0.0505
66 | CCTGCACA | -0.0498

Row | Sequence | PBM E-score
67 | CCCGGTAC | 0.128
68 | CTTGGTGC | -0.211
69 | GAATCCTA | -0.0331
70 | ATGCATCC | -0.135
71 | CTCCCCAG | -0.164
72 | ATGTGTTA | 0.0877
73 | TAGGTGAA | 0.0359
74 | AAAGCCTA | -0.0886
75 | TCTCTTCA | -0.139
76 | AGTCTCGC | -0.13
77 | CTAGGGCA | -0.129
78 | AACGGCAA | -0.144
79 | CGCGTAAA | 0.1
80 | GCGACCAA | 0.165
81 | CATTCATA | 0.167
82 | ACCCTAAG | 0.457
83 | CGGTCCCC | -0.00173
84 | ACGCGGAG | -0.0631
85 | GACCAGAC | 0.0299
86 | AGGAGATA | -0.178
